{"source": "the supplement of paper PMC11417369", "note": "± gives the standard deviation of the averaged measurements. Some of the results follow."}
{"tested_on": "PfAP2-G AP2 domain (GST-tagged)", "assay": "gcPBM binding intensity (ln(normalized median fluorescence intensity)); higher = stronger DNA binding", "method_in_brief": "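Binding intensity is defined as the maximum Masliner-normalised natural-log median intensity across replicate spots for either probe orientation. It was measured on an Agilent 4 × 180k array of primer-extended double-stranded 36-bp intergenic genomic probes and negative controls, to which GST-tagged P. falciparum DNA-binding domains made in E. coli were applied for 1 h in 1× PBS with 1% milk, 0.2 mg/ml BSA, 0.5% salmon testes DNA and 0.03% Triton X-100. Detection was by Alexa488 anti-GST antibody and scanning at 488 nm.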"}
{"sequence": "ATATATATATATATTGCACACACAATTATTATTATT [CACACA_site8721]", "gcPBM binding intensity (ln)": "10.1 ± 0.35"}
{"sequence": "ATATAATATTTATATGTACACACCTTAATCCTTAAA [CACACA_site3555]", "gcPBM binding intensity (ln)": "11.3 ± 0.81"}
{"sequence": "ATAAACGTTTTTGAAAGTACATATCATTCATTTGAT [XGTACX_site200]", "gcPBM binding intensity (ln)": "11 ± 0.64"}
{"sequence": "TTTTAACATATAAGTACACACATATAATCAATCATA [CACACA_site2325]", "gcPBM binding intensity (ln)": "11.5 ± 0.99"}
{"sequence": "ATGTAGAAGTAATGCACACATATGTATTTATATATA [CACACA_site5391]", "gcPBM binding intensity (ln)": "10.1 ± 0.057"}
{"sequence": "CCTTATAAATACTGCACACATAAAATATATATTATC [CACACA_site2806]", "gcPBM binding intensity (ln)": "10.2 ± 0.18"}
{"sequence": "TTTTATCGTTTTTTTTTTTTTTTTTTTTTTTTTTTT [CACACA_negctrl_site1309]", "gcPBM binding intensity (ln)": "10.9 ± 0.49"}
{"sequence": "TTTGTTCATATGAAATGTACAAAAAAAAAAAAAAAA [XGTACX_site8849]", "gcPBM binding intensity (ln)": "10.8 ± 0.77"}
{"sequence": "TATATATATAAAAAAGCACACATACATACATACATA [CACACA_site8196]", "gcPBM binding intensity (ln)": "10.1 ± 0.12"}
{"sequence": "AAAAAAATTAATATGTCAGCACATATATACATACAT [GTGCAC_negctrl_site110]", "gcPBM binding intensity (ln)": 10}
{"sequence": "TGTTAATTAAAACATCATTAATATTATTAAAAATAC [XGTACX_negctrl_site509]", "gcPBM binding intensity (ln)": "9.77 ± 0.057"}
{"sequence": "TCTTTTTTTACTTTCTTTTTTTTTTTTTTTTTTTTT [XGTACX_negctrl_site610]", "gcPBM binding intensity (ln)": "10.7 ± 0.61"}
{"sequence": "CAATACTAATTGTATACACACAAAAATATACCATAT [CACACA_site3326]", "gcPBM binding intensity (ln)": "10.3 ± 0.15"}
{"sequence": "CCTTTATAAAAAAGTAGTACACAATGAATTTATAAT [XGTACX_site5523]", "gcPBM binding intensity (ln)": "11.8 ± 1"}
{"sequence": "GAACCATTTTTTGGTATACACACGTAATTATATAAT [CACACA_site8552]", "gcPBM binding intensity (ln)": "10.3 ± 0.18"}
{"sequence": "TTTTTACATACAAATTAACACACATATAGAAAAGAG [CACACA_site8570]", "gcPBM binding intensity (ln)": "10.5 ± 0.4"}
{"sequence": "AATTGATACCTTACATGTACATAATATATATAAATA [XGTACX_site321]", "gcPBM binding intensity (ln)": "11.2 ± 0.72"}
{"sequence": "AAATTATTTATATGTTGTACTTATCCATTTTTATAA [XGTACX_site7441]", "gcPBM binding intensity (ln)": "11.2 ± 0.68"}
{"sequence": "TATATTTATAGACACACACACAAAAAAAAAAAAAAA [CACACA_site6818]", "gcPBM binding intensity (ln)": "9.93 ± 0.49"}
{"sequence": "TAATTTTTTTTATTATGTACTTAATAAATGTTAATT [XGTACX_site365]", "gcPBM binding intensity (ln)": "11.2 ± 0.96"}
{"sequence": "TATTTATAATTAAATACACACATATATTATATATTT [CACACA_site616]", "gcPBM binding intensity (ln)": "9.83 ± 0.014"}
{"sequence": "AATAAACATATATGTACACACATATACATATATATA [CACACA_site2848]", "gcPBM binding intensity (ln)": "11.4 ± 1.2"}
{"sequence": "TTTTTTTTTAATTATGCATGTAAATTATATATTATA [TGCATGCA_site335]", "gcPBM binding intensity (ln)": "9.8 ± 0.15"}
{"sequence": "AAGAATGTTATATTATGATGCTGTCTTTTTTTAAGA [CACACA_negctrl_site251]", "gcPBM binding intensity (ln)": "9.715 ± 0.035"}
{"sequence": "ATAAAATATTATATATATATATATATATATATATAT [CACACA_negctrl_site215]", "gcPBM binding intensity (ln)": "10.1 ± 0.91"}
{"sequence": "TTAGCTACACGCTAATGTACACAAATACAAAGAAAA [XGTACX_site3993]", "gcPBM binding intensity (ln)": "11.4 ± 0.71"}
{"sequence": "TATACGCATATATAAACACACAAAAAAAAAAAAAAA [CACACA_site2026]", "gcPBM binding intensity (ln)": "9.8 ± 0.52"}
{"sequence": "TATATTAATTTATATCAACACACAAAATCAATATAC [CACACA_site8518]", "gcPBM binding intensity (ln)": "10 ± 0.28"}
{"sequence": "ACATAAATAATAAAAACACACATATGTACTTATATA [CACACA_site8581]", "gcPBM binding intensity (ln)": "11.4 ± 0.87"}
{"sequence": "TTATTAATTTTTATTTTTAAATCACAAAAGATATAA [CACACA_negctrl_site787]", "gcPBM binding intensity (ln)": "9.79 ± 0.32"}
{"sequence": "AAACAAAAAAACTACAGTACTTTTTTCAATTCCCCT [XGTACX_site7541]", "gcPBM binding intensity (ln)": "11.3 ± 0.71"}
{"sequence": "AAAATTAACCGTAACACACACACATATATATATATA [CACACA_site3964]", "gcPBM binding intensity (ln)": "10.3 ± 0.47"}
{"sequence": "TATATGTTTACTTAATGTACTTACATTTTTATAACA [XGTACX_site1100]", "gcPBM binding intensity (ln)": "11.4 ± 0.88"}
{"sequence": "AAATTTTTAAACAGCACACATAAATATAATATATAT [CACACA_site2208]", "gcPBM binding intensity (ln)": "9.99 ± 0.085"}
{"sequence": "CATATTTGTATATGCACACATAAATTTTTCCATTTC [CACACA_site3467]", "gcPBM binding intensity (ln)": "10.1 ± 0.071"}
{"sequence": "GACATTAAAATGAAATATACATATATATGTATATAT [TGCATGCA_negctrl_site601]", "gcPBM binding intensity (ln)": "9.635 ± 0.049"}
{"sequence": "TTACATTTTTGAAATAGATACATACACGTGTATGTA [CACACA_negctrl_site1311]", "gcPBM binding intensity (ln)": "9.975 ± 0.092"}
{"sequence": "GCTATATATTACAATCGTACAATATATATATATATA [XGTACX_site6730]", "gcPBM binding intensity (ln)": "10.8 ± 0.68"}
{"sequence": "AATTGAAAAATCAGCACACACACAAATACATACATA [CACACA_site3232]", "gcPBM binding intensity (ln)": "10.3 ± 0.31"}
{"sequence": "TGGTAATACACATACACACACACATACACATATATA [CACACA_site7312]", "gcPBM binding intensity (ln)": "10.3 ± 0.29"}
{"sequence": "ATATATATATATATTACACACATGTGCAATTAAAAT [CACACA_site1778]", "gcPBM binding intensity (ln)": "10.2 ± 0.28"}
{"sequence": "AATATAAGAATATATACACACATAAATACATACATA [CACACA_site4128]", "gcPBM binding intensity (ln)": "9.91 ± 0.16"}
{"sequence": "TTTTTAAAACCTTACATACACACAAATATATATATA [CACACA_site678]", "gcPBM binding intensity (ln)": "10.2 ± 0.41"}
